Laboratory results from PubChem BioAssay (Tox21).
Where “and” joins values, the source holds several entries; their conditions need not be identical. Identical values can stand only once. The shares of active, inactive and inconclusive entries below differ from those in the screen. For some of these results: Potencies beside an inconclusive call are fits to weak or partial responses and may not hold up. Some structures have more than one record in an assay (separate samples or runs), and their calls can disagree. Calls of active or inactive are those of the source. Unless noted, calls come from the whole dose curve; as a rule, active = well fitted curve in the direction sought with a large enough effect in the repeat runs; inconclusive = weak or mixed curves; inactive = no such curve, though single readings can be large; an effect the other way counts as inactive or inconclusive.

Legend:
[1] = qHTS assay to identify small molecule antagonists of the estrogen related receptor signaling pathway with the pleiotropic PPARgamma coactivator (PGC) from Tox21 10K library - cell viability counter screen (AID 1224840; active = well fitted cell-killing curve with a large enough effect in the repeat runs, not every such curve was filed as active; inconclusive = weak or mixed curves, or effect the other way; inactive = no such curve, though single readings can be large or run the other way; note: nearly all actives have a fitted effect of over 40% in size)
In short: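 Multiplexed viability counter screen in the PGC/ERR cell line: cells treated with DMSO-dissolved compounds for 17.5 hours at 37 C, then viability measured as CellTiter-Fluor fluorescence.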

[2] = qHTS assay to identify small molecule agonists of the estrogen related receptor signaling pathway with the pleiotropic PPARgamma coactivator (PGC) from Tox21 10K library (AID 1224842); note: nearly all actives have a fitted effect of over 15% in size
In short: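 PGC/ERR reporter cells (NTP line) were seeded 2,000 per well, rested 6 h at 37 C/5% CO2, then pin-dosed with compounds in DMSO for 18 h at 37 C; luciferase read by One-Glo luminescence after 30 min at room temperature.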

[3] = target: Thyrotropin receptor (Homo sapiens) (UniProt P16473); assay: qHTS assay to identify small molecule agonists of the thyroid stimulating hormone receptor (TSHR) signaling pathway (AID 1224843; calls by dose curve; note: nearly all actives have a fitted effect of over 45% in size; for activation: % is set by controls: 0 for no effect and ±100 for the full control effect); settings: TSHR-HEK293 cells, cAMP HTRF, agonist mode, 30 min; activation: at 92.4 µM (top of the series) unless noted
Chain of UniProt P16473 (P16473 whole entry, looked up): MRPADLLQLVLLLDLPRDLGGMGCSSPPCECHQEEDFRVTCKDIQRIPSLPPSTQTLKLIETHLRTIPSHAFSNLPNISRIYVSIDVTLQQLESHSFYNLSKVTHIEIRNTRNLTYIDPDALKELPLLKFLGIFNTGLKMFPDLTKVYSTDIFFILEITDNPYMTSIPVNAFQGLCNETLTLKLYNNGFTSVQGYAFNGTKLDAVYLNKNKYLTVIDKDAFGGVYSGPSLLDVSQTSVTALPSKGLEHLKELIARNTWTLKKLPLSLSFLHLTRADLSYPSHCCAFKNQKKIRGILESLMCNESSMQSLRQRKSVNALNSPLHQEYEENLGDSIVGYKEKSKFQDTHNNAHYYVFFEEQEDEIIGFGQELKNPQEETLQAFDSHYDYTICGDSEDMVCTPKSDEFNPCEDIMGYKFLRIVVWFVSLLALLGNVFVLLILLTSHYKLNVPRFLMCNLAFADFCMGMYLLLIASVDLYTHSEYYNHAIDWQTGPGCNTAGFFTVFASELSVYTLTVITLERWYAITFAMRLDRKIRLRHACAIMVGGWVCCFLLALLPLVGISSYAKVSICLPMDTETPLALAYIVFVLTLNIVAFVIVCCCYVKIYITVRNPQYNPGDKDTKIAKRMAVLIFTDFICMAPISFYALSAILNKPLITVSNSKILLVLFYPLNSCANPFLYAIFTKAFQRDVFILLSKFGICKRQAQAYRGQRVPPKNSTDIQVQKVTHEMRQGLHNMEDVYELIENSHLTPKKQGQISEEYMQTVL
In short: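 Using 15 concentrations per compound in triplicate, cAMP production was monitored in TSHR-HEK293 cells after 30 min compound incubation at RT; HTRF reagents followed, with fluorescence intensity recorded after 1 h.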

[4] = qHTS assay to identify small molecule agonists of H2AX (AID 1224845; active = well fitted activation curve with a large enough effect in the signal ratio in the repeat runs, not every such curve was filed as active; inconclusive = weak or mixed curves; the % refers to the signal ratio; for activation (H2AX phosphorylation): % is set by controls: 0 for no effect and ±100 for the full control effect); settings: CHO-K1 phospho-H2AX Ser139 HTRF, 3 h; activation (H2AX phosphorylation): at 154 µM (top of the series)
In short: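 Wild-type CHO-K1 cells plated overnight, then exposed 3 hr at 37C to compounds at 15 concentrations (0.76% DMSO). Lysed, then HTRF anti-pH2AX(S139)-cryptate/anti-H2AX-d2 detection after 24 hr at room temperature; emissions 665 and 620 nm.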

[5] = qHTS assay to identify small molecule agonists of the hypoxia (HIF-1) signaling pathway (AID 1224846; active = well fitted activation curve with a large enough effect in the signal ratio in the repeat runs, not every such curve was filed as active; inconclusive = weak or mixed curves; the % refers to the signal ratio); settings: HRE-bla ME-180 cells, beta-lactamase ratio, 17 h; activation: at 76.8 µM (top of the series) unless noted
In short: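 Compounds from the Tox21 10K library, dissolved in DMSO, are tested for induction of a hypoxia response element–controlled beta-lactamase reporter in ME-180 cells. Exposure lasts 17 hrs at 37C after a 5 hr settling period, followed by CCF4-AM FRET substrate.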

[6] = A CellTox Green Cytotoxicity Assay to monitor cytotoxicity in HEK293 cells - 0 hour (AID 1224869); note: nearly all actives have a fitted effect of over 50% in size
In short: (§1)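 Cells (HEK293, 600/well) and dye reagent are dispensed together. After 5 h at 37 C, 23 nL compound is pinned in. Plates stay at 37 C for 40 h with fluorescence read at 0h, 8h, 16h, 24h, 32h and 40h.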

[7] = qHTS RealTime-Glo MT Cell Viability Assay in HepG2 cells - 40 hour (AID 1224870); note: nearly all actives have a fitted effect of over 50% in size
In short: (§2)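 HepG2 cells mixed with RealTime-Glo MT reagents (NanoLuc plus cell-permeant prosubstrate) were seeded at 600 cells/well, incubated 5 h at 37 C/5% CO2, then pinned with compounds in DMSO; nonlytic luminescence tracked viability during 40 h treatment.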

[8] = A CellTox Green Cytotoxicity Assay to monitor cytotoxicity in HEK293 cells - 40 hour (AID 1224871); note: nearly all actives have a fitted effect of over 45% in size
In short: as §1

[9] = qHTS RealTime-Glo MT Cell Viability Assay in HEK293 cells - 16 hour (AID 1224872); note: nearly all actives have a fitted effect of over 50% in size
In short: (§3)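 Nonlytic real-time viability readout: viable cells convert prosubstrate to NanoLuc substrate, giving luminescence proportional to live cell number. HEK293, 600 cells/well, compound added after 5 h, continuous culture at 37 C.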

[10] = qHTS RealTime-Glo MT Cell Viability Assay in HepG2 cells - 8 hour (AID 1224873); note: nearly all actives have a fitted effect of over 55% in size
In short: as §2

[11] = qHTS assay to identify small molecule antagonists of the estrogen related receptor signaling pathway with the pleiotropic PPARgamma coactivator (PGC) from Tox21 10K library (AID 1224841; call rule not given here; note: actives are mostly falling curves and most rising ones were filed inactive; nearly all actives have a fitted effect of over 50% in size)
In short: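 Steps: plate 2,000 PGC/ERR cells per well; incubate 6 h at 37 C with 5% CO2; transfer compounds from DMSO stocks by pin tool; incubate 18 h at 37 C; add One-Glo; measure luminescence 30 min later.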

[12] = qHTS assay to identify small molecule agonists of H2AX - cell viability counter screen (AID 1224847; calls by dose curve; note: nearly all actives have a fitted effect of over 30% in size)
In short: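 After overnight plating of 1000 CHO-K1 cells per well, a 15-concentration compound series was applied for 3 hr at 37C. Luminescence from CellTiter-Glo, read following 30 min at room temperature, reflected cell viability.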

[13] = qHTS assay to identify small molecule antagonists of the estrogen related receptor (ERR) signaling pathway from Tox21 library (AID 1224848); note: nearly all actives have a fitted effect of over 50% in size
In short: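 Tox21 10K compounds in DMSO tested for ERR pathway antagonism in NTP's ERR cell line; 18 h, 37 C exposure; ONE-Glo luminescence.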

[14] = target: Nuclear receptor subfamily 1 group I member 3 (Homo sapiens) (UniProt Q14994); assay: qHTS assay to identify small molecule agonists of the constitutive androstane receptor (CAR) signaling pathway (AID 1224839); note: nearly all actives have a fitted effect of over 15% in size
Chain of UniProt Q14994 (Q14994 whole entry, looked up): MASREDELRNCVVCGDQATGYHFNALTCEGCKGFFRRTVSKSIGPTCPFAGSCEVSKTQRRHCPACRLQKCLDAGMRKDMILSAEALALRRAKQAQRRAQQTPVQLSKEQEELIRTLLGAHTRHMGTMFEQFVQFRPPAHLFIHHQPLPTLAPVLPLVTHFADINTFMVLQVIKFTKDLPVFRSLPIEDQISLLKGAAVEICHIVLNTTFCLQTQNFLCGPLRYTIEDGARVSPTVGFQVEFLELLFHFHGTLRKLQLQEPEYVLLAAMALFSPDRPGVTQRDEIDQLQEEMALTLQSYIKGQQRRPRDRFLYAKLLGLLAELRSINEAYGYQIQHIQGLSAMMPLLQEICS
In short: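 Using human hepatoma HepG2 cells engineered with hCAR and a CYP2B6-2.2kb reporter, 15-concentration compound series were incubated 24 h alongside PK11195 at 0.75 uM final, with luminescence quantified afterwards.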

[15] = qHTS RealTime-Glo MT Cell Viability Assay in HEK293 cells - 32 hour (AID 1224868); note: nearly all actives have a fitted effect of over 50% in size
In short: as §3

[16] = qHTS RealTime-Glo MT Cell Viability Assay in HEK293 cells - 40 hour (AID 1224874); settings: RealTime-Glo luminescence; max response: active compounds read low; note: nearly all actives have a fitted effect of over 50% in size
In short: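 Real-time viability in HEK293: signal arises when living cells convert a prosubstrate for NanoLuc in the medium, so luminescence tracks viable cell number. Compound (23 nL, DMSO) added 5 h post-seeding; kinetic reads at 0–40 h, 37 C.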

[17] = qHTS assay to identify small molecule agonists of the hypoxia (HIF-1) signaling pathway - cell viability counter screen (AID 1224844; calls by dose curve; note: nearly all actives have a fitted effect of over 50% in size)
In short: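 Cytotoxicity was measured in parallel with the HRE-driven beta-lactamase readout: after 17 hrs of compound exposure at 37C, HRE-bla ME-180 cells received CellTiter-Glo and luminescence was recorded 30 min later.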
Potency is the fitted concentration of half-maximal effect; tags give direction and shape of the fitted curve or compound fluorescence and quenching.

CCC[CH2][Sn]([CH2]CCC)([CH2]CCC)[CH2]CCC
inconclusive: Potency [2] 77 µM [activator, single point] | activation [3] 25.7% | Potency [5] 11 µM [falling, full curve]
active: Potency [1] 17.2 µM | Potency [4] 8 µM | Potency [6] 49 µM | Potency [7] 4.9 µM | Potency [8] 12.3 µM | Potency [9] 9.77 µM | Potency [10] 11 µM

C=C(C)[C@H]1Cc2c(ccc3c2O[C@@H]2COc4cc(OC)c(OC)cc4[C@@H]2C3=O)O1
inconclusive: Potency [1] 12.4 µM [cytotoxic, partial curve] and 3.86 µM [cytotoxic, partial curve] | Potency [11] 0.0075 µM [falling, full curve, poor fit] | Potency [12] 4.01 µM [cytotoxic, partial curve] and 27.7 µM [cytotoxic, partial curve] | Potency [7] 13.4 µM [falling, partial curve, poor fit] | Potency [8] 61.6 µM [activator, single point] | Potency [10] 31.3 µM [falling, partial curve]
active: Potency [3] 24.7 µM and 17.2 µM and 26.6 µM | Potency [13] 39.1 nM and 9.7 nM and 10.6 nM

Clc1cc2c(cc1Cl)Oc1cc(Cl)c(Cl)cc1O2
inconclusive: Potency [14] 0.0211 µM [activator, full curve, poor fit] | Potency [15] 0.213 µM [cytotoxic, single point] | Potency [9] 0.213 µM [cytotoxic, single point] | Potency [16] 0.213 µM [cytotoxic, single point]

O=[N+]([O-])c1ccc(F)c([N+](=O)[O-])c1
inconclusive: activation [3] 16.5% | Potency [5] 11.1 µM [falling, full curve] | Potency [15] 35 µM [cytotoxic, partial curve] | Potency [9] 44.1 µM [cytotoxic, partial curve] | Potency [16] 39.3 µM [cytotoxic, partial curve]
active: Potency [1] 55 µM | Potency [17] 12.4 µM | Potency [12] 57.2 µM

CC(=O)c1cc(C(C)(C)C)cc2c1CCC2(C)C
inconclusive: Potency [14] 27.3 µM [activator, partial curve, poor fit] | activation (H2AX phosphorylation) [4] 15.1% | Potency [12] 113 µM [cytotoxic, single point] | Potency [9] 61.6 µM [cytotoxic, single point]

CCC[CH2][Sn]([Cl])([CH2]CCC)[CH2]CCC
inconclusive: Potency [3] 386 nM [activator, full curve] | activation [3] -47.8% | Potency [5] 310 nM [falling, full curve] and 977 nM [falling, full curve]
active: Potency [1] 1.09 µM and 864 nM | Potency [17] 310 nM and 1.1 µM | Potency [4] 358 nM and 401 nM | Potency [12] 637 nM and 713 nM | Potency [9] 390 nM and 692 nM | Potency [10] 3.47 µM and 1.38 µM | Potency [16] 310 nM and 436 nM

N#CCCC(Br)(C#N)CBr (stereo not given)
active: Potency [3] 4860 nM | Potency [4] 35.7 µM | Potency [15] 21.9 µM | Potency [7] 38.9 µM | Potency [8] 49 µM | Potency [10] 49 µM | Potency [16] 21.9 µM
inconclusive: Potency [1] 68.6 µM [cytotoxic, single point] | Potency [11] 77 µM [falling, single point] | Potency [5] 49 µM [falling, partial curve] | Potency [13] 68.6 µM [inhibitor]
